About 540 (0.36%) of roughly 150,000 compounds showed an effect of 50% or more. The list shows a part of the results.
tested on: Plasmodium falciparum; assay: Primary screen in NF54 nanoGlo assay, in single point, at 2uM, 72h; a lower Z score goes with more inhibition; type: functional, Erythrocyte; settings: timepoint 72 hour

Compound	% Inhibition	Z score
CS(=O)(=O)NCCN1C[C@@H]2CCCCN2c2ccccc21	0%	-0.08
CC1OCCC1NC(=O)N(Cc1ccccc1)CC(C)(C)O (stereo not drawn)	4%	-0.39
CC(N)C1CCN(C(=O)c2cc3c(s2)CCC3)C1 (stereo not drawn)	-14%	1.35
Cc1ncc2c(c1-c1noc(-c3cn[nH]c3-n3cnnn3)n1)CCNC2	5%	-0.82
O=C(NCC1(c2ccccc2)CC1)c1cc(C(F)(F)F)c[nH]c1=O	-7%	0.92
CN(Cc1cccc(=O)[nH]1)C(=O)c1cc2c(cn1)OCCO2	-14%	2.84
COC(=O)c1cc2c(ncn2C)c(F)c1Nc1ccccc1	-11%	1.44
O=C(N[C@H]1CCOC[C@@H]1OCC1CCC1)c1nc2ccccc2[nH]c1=O	-23%	3.81
CC(C)(C)c1nnc(CN2C(=O)NC3(CCC3)C2=O)o1	14%	-1.69
Cc1ccc(C)c(NC(=O)c2ccc3c(c2)nnn3Cc2ccccc2)c1	-10%	1
COC1(Cn2cnc(-c3ccnn3C)c2[C@H]2CC23CC3)CCCC1	-7%	1.32
Cn1ccc2ccn(CCOCC(F)(F)C(F)(F)F)c(=O)c21	-9%	0.86
CN(c1nncs1)S(=O)(=O)c1ccccc1Cl	4%	-0.42
CC(C)c1nc(-c2snnc2C(C)C)n(-c2ccccn2)n1	-6%	0.89
O=C(c1ccc2c(c1)OCO2)N1C[C@@H]2CC[C@H]1CN(Cc1ccccn1)C2	-21%	2.12
C[C@@H](c1ccc(-c2cc(C#N)n(C)c2)cc1)N(C)C	-9%	1.53
NC1CC(c2cc(NCc3cccnc3)nc(C3CC3)n2)C1 (stereo not drawn)	15%	-2.04
CC(C)c1nnc(NC(=O)c2ccc(=O)n(C)c2)s1	-1%	0.08
C1CC(c2nnc(NC[C@H]3CCCO3)o2)C1	8%	-1.09
C[C@H](NC(=O)Cn1c(=O)ccn(C2CC2)c1=O)C(=O)N1CCCCC1	-10%	1.35
Cc1ccc(C)c(N(C)C(=O)Cc2ccc(C)nc2)c1	21%	-2.7
CCCOc1ccc(Nc2cc(C)nc3ccc(Cl)cc23)cc1	38%	-6.17
CCn1ccc2cc(CN(C)CCN3CCCCC3=O)ccc21	4%	-0.55
O=C(Nc1ccc(OCc2nnc(-c3ccccc3)o2)cc1)c1ccoc1	-2%	0.24

From ChEMBL document CHEMBL4888484, “Replenishing the malaria drug discovery pipeline: Screening and hit evaluation of the MMV Hit Generation Library 1 (HGL1) against asexual blood stage Plasmodium falciparum ,using a nano luciferase reporter read-out” (2022)
